Data: the supplement of paper PMC11880418
Structures can show the parent of a compound that is named as a salt. Some of the results follow. The data scatter; read single values as rough.

Columns and labels:
Assay in all cases: ALDHbr (CSC) cell proportion score relative to DMSO vehicle (ratio to DMSO); breast (SUM159) / gastric (MKN45) / pancreatic (PANC1) / colon cancer lines; ALDHbr cells have high ALDH activity and are rich in cancer stem cells (CSC); higher = more CSC (ALDHbr) cells remaining
Conditions in all cases: 10 µM; 72 h
MKN45 = tested on: MKN45
PANC1 = tested on: PANC1
SUM159 = tested on: SUM159
T84 = tested on: T84
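Also: High-content imaging of ALDEFLUOR-stained cells with Hoechst-labelled nuclei in 384-well plates, triplicate wells, scored as Z-score against 0.1% DMSO vehicle, negative meaning fewer ALDHbr cells.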

CCC(NC(C)C)C(O)c1ccc(O)c(O)c1 (stereo unspecified) [Isoetharine mesylate salt]
ALDHbr (MKN45): 0.523
ALDHbr (PANC1): 0.868
ALDHbr (SUM159): 2.21
ALDHbr (T84): 0.84

CCOC(=O)[N-]c1c[n+](N2CCOCC2)no1 [Molsidomine]
ALDHbr (MKN45): 1.04
ALDHbr (PANC1): 0.862
ALDHbr (SUM159): 1.02
ALDHbr (T84): 0.948

C[C@]12CC[C@H]3C(=CCc4cc(O)ccc43)[C@@H]1CCC2=O [Equilin]
ALDHbr (MKN45): 0.697
ALDHbr (PANC1): 1.05
ALDHbr (SUM159): 1.2
ALDHbr (T84): 0.909

N=C(N)N1CCc2ccccc2C1 [Debrisoquin sulfate]
ALDHbr (MKN45): 1.1
ALDHbr (PANC1): 0.765
ALDHbr (SUM159): 0.899
ALDHbr (T84): 0.911

N[C@@H](Cc1cc(I)c(Oc2ccc(O)c(I)c2)c(I)c1)C(=O)O [Liothyronine]
ALDHbr (MKN45): 0.859
ALDHbr (PANC1): 0.871
ALDHbr (SUM159): 0.661
ALDHbr (T84): 0.882

CCOc1ccc(NC(C)=O)cc1 [Phenacetin]
ALDHbr (MKN45): 0.96
ALDHbr (PANC1): 1.02
ALDHbr (SUM159): 0.932
ALDHbr (T84): 0.96

OCCN1CCN(CCCN2c3ccccc3C=Cc3ccccc32)CC1 [Opipramol dihydrochloride]
ALDHbr (MKN45): 0.751
ALDHbr (PANC1): 0.923
ALDHbr (SUM159): 0.848
ALDHbr (T84): 0.762

C=CCOc1ccccc1OCC(O)CNC(C)C (stereo unspecified) [Oxprenolol hydrochloride]
ALDHbr (MKN45): 0.928
ALDHbr (PANC1): 0.976
ALDHbr (SUM159): 1.17
ALDHbr (T84): 1.03

CCOC(=O)c1ccc(N)cc1 [Benzocaine]
ALDHbr (MKN45): 1.24
ALDHbr (PANC1): 1.14
ALDHbr (SUM159): 1.04
ALDHbr (T84): 0.952

Cc1nnc(SCC2=C(C(=O)O)N3C(=O)[C@@H](NC(=O)Cn4cnnn4)[C@H]3SC2)s1 [Cefazolin sodium salt]
ALDHbr (MKN45): 0.987
ALDHbr (PANC1): 0.988
ALDHbr (SUM159): 0.84
ALDHbr (T84): 1.08

CC(=O)CCCCn1c(=O)c2c(ncn2C)n(C)c1=O [Pentoxifylline]
ALDHbr (MKN45): 0.923
ALDHbr (PANC1): 0.853
ALDHbr (SUM159): 1.23
ALDHbr (T84): 0.826

Cc1cccc(C)c1NC(=O)CN1CCN(CCCC(c2ccc(F)cc2)c2ccc(F)cc2)CC1 [Lidoflazine]
ALDHbr (MKN45): 0.583
ALDHbr (PANC1): 0.712
ALDHbr (SUM159): 0.368
ALDHbr (T84): 0.203

Cc1nc2n(c(=O)c1CCN1CCC(c3noc4cc(F)ccc34)CC1)CCCC2O (stereo unspecified) [Paliperidone]
ALDHbr (MKN45): 0.948
ALDHbr (PANC1): 0.864
ALDHbr (SUM159): 1.11
ALDHbr (T84): 0.955

CC(=O)Nc1ccc(CC(=O)O)cc1 [Actarit]
ALDHbr (MKN45): 1.25
ALDHbr (PANC1): 0.943
ALDHbr (SUM159): 0.794
ALDHbr (T84): 0.967

CC(C(=O)O)c1ccc(C(=O)c2ccccc2)s1 (stereo unspecified) [Tiaprofenic acid]
ALDHbr (MKN45): 1.12
ALDHbr (PANC1): 0.937
ALDHbr (SUM159): 0.9
ALDHbr (T84): 0.93

CCN(CC)CCNC(=O)COc1ccc(OC)cc1 [Mefexamide hydrochloride]
ALDHbr (MKN45): 0.942
ALDHbr (PANC1): 0.785
ALDHbr (SUM159): 0.948
ALDHbr (T84): 0.957

CCC1(c2ccccc2)NC(=O)N(C)C1=O (stereo unspecified) [Mephenytoin]
ALDHbr (MKN45): 1.09
ALDHbr (PANC1): 0.923
ALDHbr (SUM159): 0.86
ALDHbr (T84): 0.914

CCN(CC)CC(=O)Nc1c(C)cccc1C [Lidocaine hydrochloride]
ALDHbr (MKN45): 0.857
ALDHbr (PANC1): 1.02
ALDHbr (SUM159): 1.04
ALDHbr (T84): 0.901

CO[C@@]1(NC(=O)C2SC(=C(C(N)=O)C(=O)O)S2)C(=O)N2C(C(=O)O)=C(CSc3nnnn3C)CS[C@@H]21 (stereo partly specified) [Cefotetan]
ALDHbr (MKN45): 0.998
ALDHbr (PANC1): 1.05
ALDHbr (SUM159): 0.804
ALDHbr (T84): 1.02

N[C@@H](C(=O)N[C@@H]1C(=O)N2C(C(=O)O)=C(Cl)CS[C@H]12)c1ccccc1 [Cefaclor hydrate]
ALDHbr (MKN45): 1.22
ALDHbr (PANC1): 0.986
ALDHbr (SUM159): 1.07
ALDHbr (T84): 0.973

O=C1NCC2(CCN(CCc3ccccc3)CC2)O1 [Fenspiride hydrochloride]
ALDHbr (MKN45): 0.953
ALDHbr (PANC1): 0.956
ALDHbr (SUM159): 0.941
ALDHbr (T84): 0.914

Nc1nc(Cl)nc2c1ncn2[C@H]1C[C@H](O)[C@@H](CO)O1 [Cladribine]
ALDHbr (MKN45): 0.243
ALDHbr (PANC1): 0.953
ALDHbr (SUM159): 0.598
ALDHbr (T84): 0.13

CC=CC1=C(C(=O)O)N2C(=O)[C@@H](NC(=O)[C@H](N)c3ccc(O)cc3)[C@H]2SC1 [Cefprozil]
ALDHbr (MKN45): 1.01
ALDHbr (PANC1): 0.924
ALDHbr (SUM159): 0.941
ALDHbr (T84): 0.868

N=C(N)c1ccc(OCCCCCOc2ccc(C(=N)N)cc2)cc1 [Pentamidine isethionate]
ALDHbr (MKN45): 0.195
ALDHbr (PANC1): 0.336
ALDHbr (SUM159): 0.302
ALDHbr (T84): 0.645

C=CC(N)CCC(=O)O (stereo unspecified) [Vigabatrin hydrochloride]
ALDHbr (MKN45): 0.968
ALDHbr (PANC1): 0.764
ALDHbr (SUM159): 1.03
ALDHbr (T84): 0.952

O=C(O)c1cc(=O)c2c(OCC(O)COc3cccc4oc(C(=O)O)cc(=O)c34)cccc2o1 [Cromolyn disodium salt]
ALDHbr (MKN45): 0.796
ALDHbr (PANC1): 1
ALDHbr (SUM159): 0.945
ALDHbr (T84): 1.1

CN1CCN(C2=Nc3cc(Cl)ccc3Nc3ccccc32)CC1 [Clozapine]
ALDHbr (MKN45): 1.17
ALDHbr (PANC1): 0.791
ALDHbr (SUM159): 0.565
ALDHbr (T84): 0.869

NCCc1ccc(O)c(O)c1 [Dopamine hydrochloride]
ALDHbr (MKN45): 0.941
ALDHbr (PANC1): 0.985
ALDHbr (SUM159): 1.37
ALDHbr (T84): 1.09

C[C@]12CC[C@@H]3c4ccc(O)cc4CC[C@H]3[C@@H]1CC[C@@H]2O [Estradiol-17 beta]
ALDHbr (MKN45): 0.833
ALDHbr (PANC1): 0.794
ALDHbr (SUM159): 1.09
ALDHbr (T84): 1.06
